Assay results reported in the antibiotic and cytotoxicity screens of Wong et al. (2023).
Some of the results follow.

Key:
HSkMC = human skeletal muscle cells; test: cytotoxicity call (relative viability < 0.9); conditions: 10 µM
S. aureus RN4220 = test: growth inhibition call (relative growth <= 0.2); conditions: 50 µM

CNCCC(Oc1ccccc1C)c1ccccc1.Cl (stereo not given)
cytotoxicity call (HSkMC): inactive | growth inhibition call (S. aureus RN4220): inactive

O=C(NCC1(c2nc(-c3ccccc3)cs2)CCOCC1)c1cccc(-c2noc(C(F)(F)F)n2)c1
cytotoxicity call (HSkMC): inactive | growth inhibition call (S. aureus RN4220): inactive

Cc1ccc(S(=O)(=O)Nc2cccc3c2O[C@H](CN(C)Cc2ccc(-c4ccccc4)cc2)[C@@H](C)CN([C@H](C)CO)C3=O)cc1
cytotoxicity call (HSkMC): inactive | growth inhibition call (S. aureus RN4220): inactive

O=C(NCCn1ncc2c(=O)n(Cc3ccccc3)cnc21)c1ccc(S(=O)(=O)N2CCOCC2)cc1
cytotoxicity call (HSkMC): inactive | growth inhibition call (S. aureus RN4220): inactive

NC(=O)Cn1nnc(-c2ccccc2)n1
cytotoxicity call (HSkMC): inactive | growth inhibition call (S. aureus RN4220): inactive

COc1ccc(S(=O)(=O)Nc2ccc3c(c2)CC(=O)N([C@@H](C)CO)C[C@H](C)[C@H](CN(C)S(C)(=O)=O)O3)cc1
cytotoxicity call (HSkMC): inactive | growth inhibition call (S. aureus RN4220): inactive

C[C@@H]1CN([C@@H](C)CO)C(=O)Cc2cc(NS(=O)(=O)c3ccc(Cl)cc3)ccc2O[C@@H]1CN(C)Cc1ccc(-c2ccccc2)cc1
cytotoxicity call (HSkMC): inactive | growth inhibition call (S. aureus RN4220): inactive

COc1ccc(NC(=O)N(C)C[C@H]2OCCCC[C@H](C)Oc3ccc(NC(=O)Cc4ccccc4)cc3C(=O)N([C@@H](C)CO)C[C@H]2C)cc1
cytotoxicity call (HSkMC): inactive | growth inhibition call (S. aureus RN4220): inactive

O=C(O)CN1CCCCC1=O
cytotoxicity call (HSkMC): inactive | growth inhibition call (S. aureus RN4220): inactive

Cc1noc(C)c1S(=O)(=O)Nc1ccc2c(c1)C(=O)N([C@H](C)CO)C[C@H](C)[C@@H](CN(C)Cc1ccccc1)OCCCC[C@@H](C)O2
cytotoxicity call (HSkMC): inactive | growth inhibition call (S. aureus RN4220): inactive

C[C@@H]1CCCCO[C@@H](CN(C)Cc2ccc3c(c2)OCO3)[C@H](C)CN([C@H](C)CO)C(=O)c2cc(NS(=O)(=O)c3ccc(F)cc3)ccc2O1
cytotoxicity call (HSkMC): inactive | growth inhibition call (S. aureus RN4220): inactive

COc1cccc(S(=O)(=O)N(C)C[C@@H]2OCc3cnnn3CCCC(=O)N([C@@H](C)CO)C[C@@H]2C)c1
cytotoxicity call (HSkMC): inactive | growth inhibition call (S. aureus RN4220): inactive

CC(C)N1CCN(c2ccc(OCC3COC(Cn4cncn4)(c4ccc(Cl)cc4Cl)O3)cc2)CC1 (stereo not given)
cytotoxicity call (HSkMC): inactive | growth inhibition call (S. aureus RN4220): inactive

Cc1noc(C)c1NC(=O)Nc1ccc2c(c1)C(=O)N([C@H](C)CO)C[C@@H](C)[C@H](CN(C)C(=O)Nc1ccc(C(F)(F)F)cc1)OCCCC[C@@H](C)O2
cytotoxicity call (HSkMC): inactive | growth inhibition call (S. aureus RN4220): inactive

CC(C)NC(=O)Nc1ccc2c(c1)C(=O)N([C@H](C)CO)C[C@H](C)[C@@H](CN(C)Cc1ccccc1)OCCCC[C@H](C)O2
cytotoxicity call (HSkMC): inactive | growth inhibition call (S. aureus RN4220): inactive

O=C(C[C@@H]1CC[C@@H]2[C@H](COC[C@@H](O)CN2C(=O)Nc2ccc(Cl)c(Cl)c2)O1)NCc1ccc(Cl)c(Cl)c1
cytotoxicity call (HSkMC): inactive | growth inhibition call (S. aureus RN4220): inactive

O=C(C[C@@H]1CC[C@H]2[C@@H](COC[C@@H](O)CN2C(=O)Nc2ccc(Cl)cc2)O1)NC1Cc2ccccc2C1
cytotoxicity call (HSkMC): inactive | growth inhibition call (S. aureus RN4220): inactive

C[C@H](CO)N1C[C@H](C)[C@H](CN(C)Cc2ccccc2)Oc2ccc(NC(=O)CCCCCC(=O)Nc3ccccc3N)cc2C1=O
cytotoxicity call (HSkMC): inactive | growth inhibition call (S. aureus RN4220): inactive

CCOc1nc2cccc(C(=O)OCc3oc(=O)oc3C)c2n1Cc1ccc(-c2ccccc2-c2noc([O-])n2)cc1.[K+]
cytotoxicity call (HSkMC): inactive | growth inhibition call (S. aureus RN4220): inactive

Cc1ccc(S(=O)(=O)Nc2ccc3c(c2)CC(=O)N([C@@H](C)CO)C[C@@H](C)[C@H](CN(C)Cc2ccc(Cl)c(Cl)c2)O3)cc1
cytotoxicity call (HSkMC): inactive | growth inhibition call (S. aureus RN4220): inactive

COc1ccccc1OC[C@@H](O)CO
cytotoxicity call (HSkMC): inactive | growth inhibition call (S. aureus RN4220): inactive

C[C@H](CO)N1C[C@H](C)[C@H](CN(C)Cc2ccc3c(c2)OCO3)Oc2c(NS(=O)(=O)c3cn(C)cn3)cccc2C1=O
cytotoxicity call (HSkMC): inactive | growth inhibition call (S. aureus RN4220): inactive

C[C@H](O)C#Cc1ccc2c(c1)O[C@@H](CN(C)C)[C@@H](C)CN([C@@H](C)CO)S2(=O)=O
cytotoxicity call (HSkMC): inactive | growth inhibition call (S. aureus RN4220): inactive

O=C(O)CCc1n[nH]c(=S)[nH]c1=O
cytotoxicity call (HSkMC): inactive | growth inhibition call (S. aureus RN4220): inactive

C[C@H]1CN([C@@H](C)CO)C(=O)c2cc(-c3cccc(C(=O)N(C)C)c3)cnc2O[C@H]1CN(C)C(=O)Cc1ccccn1
cytotoxicity call (HSkMC): inactive | growth inhibition call (S. aureus RN4220): inactive

CC(C)NC(=O)N(C)C[C@H]1Oc2c(NC(=O)Nc3ccc4c(c3)OCO4)cccc2C(=O)N([C@@H](C)CO)C[C@H]1C
cytotoxicity call (HSkMC): inactive | growth inhibition call (S. aureus RN4220): inactive

C[C@@H]1CN([C@@H](C)CO)S(=O)(=O)c2ccc(C#Cc3ccccc3F)cc2O[C@@H]1CN(C)CC1CC1
cytotoxicity call (HSkMC): inactive | growth inhibition call (S. aureus RN4220): inactive

C[C@@H]1CCCCO[C@@H](CN(C)C(=O)Nc2ccc(C(F)(F)F)cc2)[C@@H](C)CN([C@H](C)CO)C(=O)c2cc(NC(=O)c3ccncc3)ccc2O1
cytotoxicity call (HSkMC): inactive | growth inhibition call (S. aureus RN4220): inactive

Cc1sccc1-c1csc(N)n1
cytotoxicity call (HSkMC): inactive | growth inhibition call (S. aureus RN4220): inactive

O=C(C[C@@H]1CC[C@@H]2[C@H](COC[C@@H](O)CN2S(=O)(=O)c2cccc(Cl)c2)O1)NC1Cc2ccccc2C1
cytotoxicity call (HSkMC): inactive | growth inhibition call (S. aureus RN4220): inactive

COc1ccc(NC(=O)Nc2ccc3c(c2)CC(=O)N([C@@H](C)CO)C[C@H](C)[C@@H](CN(C)Cc2ccc(-c4ccccc4)cc2)O3)cc1
cytotoxicity call (HSkMC): inactive | growth inhibition call (S. aureus RN4220): inactive

C[C@H]1CN([C@@H](C)CO)C(=O)Cc2cc(NC(=O)CCN3CCOCC3)ccc2O[C@H]1CN(C)Cc1ccc(C(=O)Nc2ccccc2N)cc1
cytotoxicity call (HSkMC): inactive | growth inhibition call (S. aureus RN4220): inactive

C[C@@H]1CN([C@H](C)CO)C(=O)c2c(c3ccccc3n2C)-c2ccccc2CO[C@H]1CN(C)Cc1ccc(Cl)c(Cl)c1
cytotoxicity call (HSkMC): inactive | growth inhibition call (S. aureus RN4220): inactive

C[C@@H]1CN([C@@H](C)CO)C(=O)c2cc(N(C)C)ccc2O[C@@H](C)CCCCO[C@H]1CN(C)C(=O)Nc1cccc2ccccc12
cytotoxicity call (HSkMC): inactive | growth inhibition call (S. aureus RN4220): inactive

C[C@H](CO)N1C[C@H](C)[C@H](CN(C)Cc2ccc(C(F)(F)F)cc2)OCc2ccccc2-c2ccccc2C1=O
cytotoxicity call (HSkMC): inactive | growth inhibition call (S. aureus RN4220): inactive

Cc1noc(C)c1NC(=O)N(C)C[C@@H]1OCCCC[C@@H](C)Oc2ccc(NC(=O)NC3CCCCC3)cc2C(=O)N([C@H](C)CO)C[C@@H]1C
cytotoxicity call (HSkMC): inactive | growth inhibition call (S. aureus RN4220): inactive

C[C@H](CO)N1C[C@H](C)[C@H](CN(C)Cc2ccc(C(F)(F)F)cc2)OCCCC[C@H](C)Oc2ccc(N(C)C)cc2C1=O
cytotoxicity call (HSkMC): inactive | growth inhibition call (S. aureus RN4220): inactive

COc1ccc(S(=O)(=O)N(C)C[C@@H]2Oc3ccc(NC(=O)NC(C)C)cc3C(=O)N([C@H](C)CO)C[C@H]2C)cc1
cytotoxicity call (HSkMC): inactive | growth inhibition call (S. aureus RN4220): inactive

C[C@H]1[C@H]([Si](C)(C)F)[C@@H](CCO)O[C@]12C(=O)N(Cc1ccccc1)c1ccc(N3C(=O)c4ccccc4Oc4ccccc43)cc12
cytotoxicity call (HSkMC): inactive | growth inhibition call (S. aureus RN4220): inactive

O=C(Cc1nn[nH]n1)NS(=O)(=O)c1ccccc1
cytotoxicity call (HSkMC): inactive | growth inhibition call (S. aureus RN4220): inactive

C[C@@H]1CN([C@H](C)CO)C(=O)c2cc(NS(=O)(=O)c3ccc(F)cc3)ccc2O[C@@H](C)CCCCO[C@@H]1CN(C)Cc1ccc2c(c1)OCO2
cytotoxicity call (HSkMC): inactive | growth inhibition call (S. aureus RN4220): inactive

Cc1noc(C)c1NC(=O)Nc1ccc2c(c1)C(=O)N([C@H](C)CO)C[C@@H](C)[C@H](CN(C)C(=O)Nc1ccccc1)OCCCC[C@@H](C)O2
cytotoxicity call (HSkMC): inactive | growth inhibition call (S. aureus RN4220): inactive

CC(=O)Nc1ncc(CN2CCOCC2)s1
cytotoxicity call (HSkMC): inactive | growth inhibition call (S. aureus RN4220): inactive

COCC#Cc1ccc([C@@H]2[C@H]3CN(C(=O)c4ccncc4)CC(=O)N3[C@H]2CO)cc1
cytotoxicity call (HSkMC): inactive | growth inhibition call (S. aureus RN4220): inactive

C[C@H](CO)N1C[C@H](C)[C@H](CN(C)CC2CC2)Oc2ccc(NS(=O)(=O)c3ccc(F)cc3)cc2C1=O
cytotoxicity call (HSkMC): inactive | growth inhibition call (S. aureus RN4220): inactive

Cc1noc(C)c1S(=O)(=O)N(C)C[C@@H]1OCCCC[C@@H](C)Oc2ccc(NC(=O)Nc3ccccc3)cc2C(=O)N([C@H](C)CO)C[C@H]1C
cytotoxicity call (HSkMC): inactive | growth inhibition call (S. aureus RN4220): inactive

CO[C@@H](CN(C)C(=O)C1CCOCC1)[C@@H](C)CN(C(=O)Nc1ccc(C(F)(F)F)cc1)[C@@H](C)CO
cytotoxicity call (HSkMC): inactive | growth inhibition call (S. aureus RN4220): inactive

CO[C@@H]1[C@H](O[P@@](=O)(OC[C@H]2O[C@@H](n3cnc4c(N)ncnc43)C[C@@H]2O)SCOC(=O)OC(C)C)[C@@H](CO)O[C@H]1n1ccc(=O)[nH]c1=O
cytotoxicity call (HSkMC): inactive | growth inhibition call (S. aureus RN4220): inactive

COC(=O)C1=C2CC[C@H](CO)NC(=O)N[C@H](Cc3ccccc3)C(=O)NCc3cn(nn3)C[C@@H](Cc3ccccc3)NC(=O)c3oc(c(C(=O)OC)c3C(=O)OC)CC[C@H](CO)NC(=O)N[C@H](Cc3ccccc3)C(=O)NCc3cn(nn3)C[C@@H](Cc3ccccc3)NC(=O)C(=C1C(=O)OC)O2
cytotoxicity call (HSkMC): inactive | growth inhibition call (S. aureus RN4220): inactive

CCCNC(=O)N1C[C@]2(CN(C2)S(=O)(=O)c2ccccc2)c2c(n(c3cc(ccc23)OC)C)[C@@H]1CO
cytotoxicity call (HSkMC): inactive | growth inhibition call (S. aureus RN4220): inactive

CCOc1ccc(NC(=O)CC(C)O)cc1 (stereo not given)
cytotoxicity call (HSkMC): inactive | growth inhibition call (S. aureus RN4220): inactive

Cc1cc(C(=O)Nc2cccc3c2O[C@H](CN(C)Cc2ccccc2)[C@@H](C)CN([C@@H](C)CO)C3=O)n(C)n1
cytotoxicity call (HSkMC): inactive | growth inhibition call (S. aureus RN4220): inactive

C[C@H]1CN([C@@H](C)CO)C(=O)c2cc(N(C)C)ccc2O[C@H]1CN(C)S(=O)(=O)c1ccc(Cl)cc1
cytotoxicity call (HSkMC): inactive | growth inhibition call (S. aureus RN4220): inactive

Cc1noc(C)c1NC(=O)Nc1ccc2c(c1)C(=O)N([C@H](C)CO)C[C@H](C)[C@@H](CN(C)S(=O)(=O)c1ccc(F)cc1)OCCCC[C@@H](C)O2
cytotoxicity call (HSkMC): inactive | growth inhibition call (S. aureus RN4220): inactive

C[C@H](CO)N1C[C@H](C)[C@@H](CN(C)Cc2ccc(C(=O)Nc3ccccc3N)cc2)Oc2ccc(NC(=O)Nc3cccc4ccccc34)cc2C1=O
cytotoxicity call (HSkMC): inactive | growth inhibition call (S. aureus RN4220): inactive

COc1ccc2c3c(n(c2c1)C)[C@@H](CO)N(Cc1cc(cc(c1)OC)OC)C[C@]13CCN(CC1)S(=O)(=O)c1cn(cn1)C
cytotoxicity call (HSkMC): inactive | growth inhibition call (S. aureus RN4220): inactive

CC(C)NC(=O)Nc1ccc2c(c1)C(=O)N([C@@H](C)CO)C[C@H](C)[C@@H](CN(C)Cc1ccc(C(=O)O)cc1)O2
cytotoxicity call (HSkMC): inactive | growth inhibition call (S. aureus RN4220): inactive

NCc1cnc(Nc2ccccc2)nc1
cytotoxicity call (HSkMC): inactive | growth inhibition call (S. aureus RN4220): inactive

C[C@@H]1CN([C@H](C)CO)C(=O)Cc2cc(NC(=O)CCC(F)(F)F)ccc2O[C@H]1CN(C)Cc1ccc(Cl)c(Cl)c1
cytotoxicity call (HSkMC): inactive | growth inhibition call (S. aureus RN4220): inactive

C[C@H](CO)N1C[C@H](C)[C@@H](CN(C)C(=O)c2cnccn2)Oc2ncc(/C=C/c3ccccc3)cc2C1=O
cytotoxicity call (HSkMC): inactive | growth inhibition call (S. aureus RN4220): inactive
